Measured values as given in the supplement of paper PMC9446081.
Out of some 39,000 compounds screened, about 220 (0.56%) showed activity. This is one part of the list.

System: Escherichia coli K-12 BW25113
Assay: relative growth (OD600 normalised to plate interquartile mean) (fraction); higher = less growth inhibition, active = 0.2 or less
Settings: 50 µM; LB; incubation time: overnight (16-24 h)
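Further: static incubation at 37 °C against the wild-type strain, values averaged over two biological replicates.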

| Compound | relative growth |
| --- | --- |
| CC(C)NC(=O)N(C)C[C@@H]1Oc2ccc(NC(=O)CCC(F)(F)F)cc2CC(=O)N([C@@H](C)CO)C[C@H]1C | inactive: 0.983 |
| O=c1cc(-c2ccccc2)ss1 | inactive: 0.955 |
| COc1ccc(NC(=O)N(C)C[C@@H]2Oc3c(NC(=O)c4cnccn4)cccc3C(=O)N([C@H](C)CO)C[C@@H]2C)cc1 | inactive: 0.988 |
| CC(=O)N1CCN(c2c(C)cnc3c2c(=O)n(CC(N)=O)c(=O)n3C)CC1 | inactive: 0.994 |
| NCc1c[nH]nc1-c1ccccc1 | inactive: 1 |
| C[C@@H]1CCCCO[C@@H](CN(C)C(=O)Nc2ccc3c(c2)OCO3)[C@H](C)CN([C@@H](C)CO)C(=O)c2cc(NC(=O)Nc3ccccc3)ccc2O1 | inactive: 1.05 |
| C[C@@H]1CN([C@@H](C)CO)C(=O)Cc2cc(NC(=O)NC3CCCCC3)ccc2O[C@H]1CN(C)Cc1ccc(-c2ccccc2)cc1 | inactive: 0.923 |
| COc1ccc(S(=O)(=O)N(C)C[C@@H]2Oc3c(NC(=O)NC(C)C)cccc3C(=O)N([C@H](C)CO)C[C@@H]2C)cc1 | inactive: 0.98 |
| CC(C)CC#Cc1ccc2c(c1)O[C@@H](CN(C)S(=O)(=O)c1cccc(F)c1)[C@@H](C)CN([C@H](C)CO)S2(=O)=O | inactive: 1.03 |
| C[C@@H]1CN([C@@H](C)CO)C(=O)c2cc(NC(=O)Nc3ccc(C(F)(F)F)cc3)ccc2O[C@@H]1CN(C)Cc1ccc(Cl)c(Cl)c1 | inactive: 1.02 |
| C[C@@H]1CN([C@@H](C)CO)S(=O)(=O)c2ccc(C#Cc3ccncc3)cc2O[C@@H]1CN(C)C(=O)Nc1ccc2c(c1)OCO2 | inactive: 0.99 |
| COc1cccc(C#Cc2cnc3c(c2)C(=O)N([C@H](C)CO)C[C@H](C)[C@H](CN(C)C(=O)C2CCC2)O3)c1 | inactive: 1.01 |
| O=C(C[C@H]1CC[C@@H]2[C@H](COC[C@@H](O)CN2C(=O)Nc2ccc(Cl)cc2)O1)NCCc1ccncc1 | inactive: 0.926 |
| Cc1ccc2sc(N(CCCN(C)C)C(=O)c3ccc(S(=O)(=O)N(C)Cc4ccccc4)cc3)nc2c1C | inactive: 0.95 |
| CN(c1ccc(N)cc1[N+](=O)[O-])S(C)(=O)=O | inactive: 1.02 |
| NCc1ccncc1 | inactive: 0.956 |
| C[C@@H]1CN([C@H](C)CO)C(=O)c2cccc(NC(=O)C3CC3)c2O[C@@H]1CN(C)S(=O)(=O)c1ccccc1 | inactive: 1.01 |
| C[C@@H]1CN([C@@H](C)CO)C(=O)c2cc(NS(=O)(=O)c3cn(C)cn3)ccc2O[C@@H](C)CCCCO[C@@H]1CN(C)S(=O)(=O)c1cccs1 | inactive: 1.01 |
| C[C@H](CO)N1C[C@H](C)[C@H](CN(C)C(=O)Nc2ccccc2)Oc2ccc(NC(=O)Cn3cnnn3)cc2C1=O | inactive: 0.995 |
| C[C@H](CO)N1C[C@H](C)[C@@H](CN(C)C(=O)CN(C)C)Oc2cc(C#CCC3CCCC3)ccc2S1(=O)=O | inactive: 0.995 |
| C[C@H](CO)N1C[C@H](C)[C@@H](CN(C)S(=O)(=O)c2cn(C)cn2)Oc2c(NC(=O)NC3CCCCC3)cccc2C1=O | inactive: 1.02 |

| Compound | relative growth |
| --- | --- |
| NC(N)=O | inactive: 0.964 |
| C[C@@H]1CN([C@@H](C)CO)S(=O)(=O)c2ccc(C#Cc3ccc(F)cc3)cc2O[C@@H]1CN(C)S(=O)(=O)c1cn(C)cn1 | inactive: 1.04 |
| Cc1c(NC(C)C)c(=O)n(-c2ccccc2)n1C.Cl | inactive: 1.17 |
| COc1ccc(S(=O)(=O)Nc2ccc3c(c2)C(=O)N([C@H](C)CO)C[C@@H](C)[C@H](CN(C)C(=O)Nc2ccc(C(F)(F)F)cc2)OCCCC[C@H](C)O3)cc1 | inactive: 1.01 |
| C[C@H]1CN([C@@H](C)CO)C(=O)c2ccccc2-c2ccccc2CO[C@H]1CN(C)Cc1ccc(Oc2ccccc2)cc1 | inactive: 1.02 |
| Cc1ccc(S(=O)(=O)N(C)C[C@@H]2Oc3c(NS(=O)(=O)c4ccc(F)cc4)cccc3C(=O)N([C@H](C)CO)C[C@H]2C)cc1 | inactive: 1 |
| C[C@@H]1CN([C@H](C)CO)C(=O)c2cc(-c3ccc(C#N)cc3)cnc2O[C@H]1CN(C)C(=O)Nc1ccc(C(F)(F)F)cc1 | inactive: 1.03 |
| COc1ccc(S(=O)(=O)N(C)C[C@@H]2Oc3ccc(NC(=O)CCC(F)(F)F)cc3CC(=O)N([C@@H](C)CO)C[C@H]2C)cc1 | inactive: 1.02 |
| C=C(C)CNc1nc(-c2ccccc2)c(-c2ccccc2)s1 | inactive: 1.01 |
| CNC(=O)C[C@H]1CC[C@H]2[C@@H](COC[C@@H](O)CN2C(=O)Nc2cccc(OC)c2)O1 | inactive: 0.971 |
| COc1ccc(CN(C)C[C@@H]2OCCCC[C@@H](C)Oc3ccc(NC(=O)Nc4ccc(F)cc4)cc3C(=O)N([C@@H](C)CO)C[C@@H]2C)cc1 | inactive: 1.01 |
| C[C@H]1CN([C@@H](C)CO)C(=O)c2cccc(NC(=O)Nc3ccc(C(F)(F)F)cc3)c2O[C@@H]1CN(C)C(=O)NC1CCCCC1 | inactive: 0.783 |
| C[C@@H]1CN([C@H](C)CO)C(=O)c2cccc(NC(=O)c3ccc(-c4nccs4)cc3)c2O[C@@H]1CN(C)Cc1ccccc1 | inactive: 1.02 |
| CCC(=O)Oc1ccc2c(c1)CCC1C2CCC2(C)C1CC(OC(=O)CC)C2OC(=O)CC (configuration not stated) | inactive: 0.779 |
| COc1ccc(CN(C)C[C@@H]2OCCCC[C@H](C)Oc3ccc(NC(=O)c4ccccc4)cc3C(=O)N([C@@H](C)CO)C[C@@H]2C)cc1 | inactive: 0.995 |
| Cc1noc(C)c1S(=O)(=O)Nc1ccc2c(c1)C(=O)N([C@H](C)CO)C[C@@H](C)[C@@H](CN(C)C(=O)NC1CCCCC1)O2 | inactive: 0.997 |
| N#CC(c1ccccc1)(c1ccccc1)c1ccccc1Cl | inactive: 1.01 |
| C=CCNC(=O)[C@H]1[C@@H]2C(=O)O[C@@H](c3ccccc3)[C@@H](c3ccccc3)N2[C@@H](c2ccc(OCCO)cc2)[C@]12C(=O)Nc1ccc(C#CC3=CCCCC3)cc12 | inactive: 1.07 |
| Cc1noc(C)c1S(=O)(=O)Nc1ccc2c(c1)C(=O)N([C@H](C)CO)C[C@@H](C)[C@@H](CN(C)C(=O)NC(C)C)O2 | inactive: 0.995 |
| C[C@H]1CN([C@@H](C)CO)C(=O)c2cc(C#CCN(C)C)cnc2O[C@H]1CN(C)C(=O)Nc1ccccc1F | inactive: 1.02 |
| C[N+](C)(C)CCCC[C@@H]1NC(=O)[C@H]2C[C@@H](C(=O)NCCCCCCNC(=O)CS)[C@@H](c3cccc(OCCO)c3)N2C1=O | inactive: 0.982 |

| Compound | relative growth |
| --- | --- |
| CC(C)CC#Cc1ccc2c(c1)O[C@@H](CN(C)C(=O)NC1CCCC1)[C@@H](C)CN([C@@H](C)CO)S2(=O)=O | inactive: 0.937 |
| C[C@H]1CN([C@@H](C)CO)C(=O)c2cccc(NS(=O)(=O)c3cn(C)cn3)c2O[C@H]1CN(C)Cc1ccncc1 | inactive: 1 |
| COc1ccc(S(=O)(=O)Nc2ccc3c(c2)C(=O)N([C@@H](C)CO)C[C@H](C)[C@@H](CN(C)C(=O)Nc2ccc4c(c2)OCO4)OCCCC[C@@H](C)O3)cc1 | inactive: 1.01 |
| Cn1cnc(S(=O)(=O)N[C@H]2C=C[C@H](CC(=O)NCC3CC3)O[C@@H]2CO)c1 | inactive: 1.01 |
| O=C(C[C@H]1C[C@H]2c3cc(NC(=O)NC4CCCC4)ccc3O[C@H]2[C@H](CO)O1)NCc1ccc(-c2ccccc2)cc1 | inactive: 0.999 |
| COc1ccc(/C=C/CN(C/C=C/c2ccc(OC)cc2)CCCNS(=O)(=O)c2cccc3cnccc23)cc1 | inactive: 0.947 |
| C[C@H]1CNCCO1 | inactive: 0.997 |
| O=C(C[C@@H]1CC=CC[C@@H](Cc2ccc(F)cc2)C(=O)OC[C@H](Cc2c[nH]c3ccccc23)NC1=O)NCCO | inactive: 1.02 |
| C[C@@H]1CCCCO[C@H](CN(C)C(=O)Nc2ccc(C(F)(F)F)cc2)[C@@H](C)CN([C@H](C)CO)C(=O)c2cc(NC(=O)Nc3ccc(F)cc3)ccc2O1 | inactive: 0.879 |
| Cn1c([N+](=O)[O-])cnc1COC(N)=O | inactive: 0.98 |
| C[C@H](CO)N1C[C@H](C)[C@H](CN(C)Cc2ccc(O)cc2)OCc2ccccc2-c2c(n(C)c3ccccc23)C1=O | inactive: 0.99 |
| O=C(C[C@@H]1CC[C@H]2[C@@H](COC[C@@H](O)CN2S(=O)(=O)c2ccccc2Cl)O1)NCc1ccccc1Cl | inactive: 1 |
| C[C@@H]1CCCCO[C@@H](CN(C)C(=O)Nc2cccc3ccccc23)[C@H](C)CN([C@@H](C)CO)C(=O)c2cc(NC(=O)Nc3ccccc3)ccc2O1 | inactive: 1.02 |
| COCCCNC(=O)[C@@]1(Sc2ccc(C)cc2)CC(=O)N(Cc2cc(C(F)(F)F)cc(C(F)(F)F)c2)[C@@H]1c1ccc(CO)cc1I | inactive: 1.02 |
| C[C@@H]1CCCCO[C@@H](CN(C)C(=O)Nc2ccc(F)cc2)[C@@H](C)CN([C@H](C)CO)C(=O)c2cc(NS(=O)(=O)c3ccccc3)ccc2O1 | inactive: 1.01 |
| CCNC1=N[C@@H]2[C@@H](O)[C@H](O)[C@@H](CO)O[C@@H]2S1 | inactive: 0.955 |
| COc1ccc(NC(=O)N(C)C[C@H]2OCCCC[C@H](C)Oc3ccc(NS(=O)(=O)c4ccc(C)cc4)cc3C(=O)N([C@H](C)CO)C[C@@H]2C)cc1 | inactive: 1.05 |
| C[C@@H]1CN([C@@H](C)CO)C(=O)c2cc(NS(=O)(=O)c3cccs3)ccc2O[C@@H](C)CCCCO[C@H]1CN(C)C(=O)Nc1ccc(F)cc1 | inactive: 1.01 |
| C[C@H]1CN([C@@H](C)CO)S(=O)(=O)c2ccc(C#CCN(C)C)cc2O[C@@H]1CN(C)Cc1ccc2c(c1)OCO2 | inactive: 1.02 |
| C[C@@H]1CCCCO[C@@H](CN(C)C(=O)Cc2ccccc2)[C@@H](C)CN([C@H](C)CO)C(=O)c2cc(NC(=O)Nc3ccccc3)ccc2O1 | inactive: 1.02 |
